In publication PMC10107326 (Angewandte Chemie (International Ed. in English), 2022):
In brackets after ≈: the same amount, converted by molar mass. Read-outs that look alike come from different tables or passages of the source.

Assays:
[1] = tested on: A. baumannii 054 (OXA-51-ISAba1); assay: microbe, parasite or virus in culture; conditions: Acinetobacter baumannii
[2] = tested on: A. baumannii 038 (OXA-23); assay: microbe, parasite or virus in culture; conditions: Acinetobacter baumannii
[3] = tested on: A. baumannii 045 (OXA-58); assay: microbe, parasite or virus in culture; conditions: Acinetobacter baumannii
[4] = tested on: A. baumannii 046 (OXA-40); assay: microbe, parasite or virus in culture; conditions: Acinetobacter baumannii
[5] = tested on: A. baumannii 047 (OXA-235); assay: microbe, parasite or virus in culture; conditions: Acinetobacter baumannii
A. baumannii 070 (NDM-1) [6] = assay: microbe, parasite or virus in culture; conditions: Acinetobacter baumannii
[7] = tested on: A. baumannii 038 (OXA-23)
[8] = tested on: A. baumannii 045 (OXA-58)
[9] = tested on: A. baumannii 046 (OXA-40)
[10] = tested on: A. baumannii 047 (OXA-235)
A. baumannii 070 (NDM-1) [11] = tested on: A. baumannii 070 (NDM-1)
[12] = tested on: A. baumannii 054 (OXA-51-ISAba1)
[13] = Table S 4 antibiogram, CRAB clinical isolate 038 (OXA-23)
[14] = Table S 4 antibiogram, CRAB clinical isolate 045 (OXA-58)
[15] = Table S 4 antibiogram, CRAB clinical isolate 046 (OXA-40)
[16] = Table S 4 antibiogram, CRAB clinical isolate 047 (OXA-235)
[17] = Table S 4 antibiogram, CRAB clinical isolate 070 (NDM-1)
[18] = Table S 4 antibiogram, CRAB clinical isolate 054 (OXA-51-ISAba1)

Molecule	MIC [1] [µg/mL]	MIC [2] [µg/mL]	MIC [3] [µg/mL]	MIC [4] [µg/mL]	MIC (A. baumannii 070 (NDM-1) [6]) [µg/mL]	MIC [7, 13] [µg/mL]	MIC [8, 14] [µg/mL]	MIC [9, 15] [µg/mL]	MIC [10, 16] [µg/mL]	MIC (A. baumannii 070 (NDM-1) [11]; [17]) [µg/mL]	MIC [12, 18] [µg/mL]	other results
NCC[C@H](O)C(=O)N[C@@H]1C[C@H](N)[C@@H](O[C@H]2O[C@H](CN)[C@@H](O)[C@H](O)[C@H]2O)[C@H](O)[C@H]1O[C@H]1O[C@H](CO)[C@@H](O)[C@H](N)[C@H]1O [AMK, Amikacin]	2 (≈ 3.42 µM)	–	–	–	–	–	–	–	–	–	–	–
C[C@H]1COc2c(N3CCN(C)CC3)c(F)cc3c(=O)c(C(=O)O)cn1c23 [LEV, Levofloxacin]	–	8 (≈ 22.1 µM)	8 (≈ 22.1 µM)	8 (≈ 22.1 µM)	4 (≈ 11.1 µM)	–	–	–	–	–	–	MIC [5]: 8 µg/mL (≈ 22.1 µM)
CN(C)c1ccc(O)c2c1C[C@H]1C[C@H]3[C@H](N(C)C)C(O)=C(C(N)=O)C(=O)[C@@]3(O)C(O)=C1C2=O [MNO, Minocycline]	1 (≈ 2.19 µM)	1 (≈ 2.19 µM)	4 (≈ 8.74 µM)	4 (≈ 8.74 µM)	≤ 0.0625	–	–	–	–	–	–	–
CN(C)c1cc(NC(=O)CNC(C)(C)C)c(O)c2c1C[C@H]1C[C@H]3[C@H](N(C)C)C(O)=C(C(N)=O)C(=O)[C@@]3(O)C(O)=C1C2=O [TGC, Tigecyline]	–	–	–	–	–	2 (≈ 3.41 µM)	1 (≈ 1.71 µM)	1 (≈ 1.71 µM)	1 (≈ 1.71 µM)	0.125 (≈ 0.213 µM)	1 (≈ 1.71 µM)	–
NC[C@H]1O[C@H](O[C@H]2[C@H](O)[C@@H](O[C@H]3O[C@H](CO)[C@@H](O)[C@H](N)[C@H]3O)[C@H](N)C[C@@H]2N)[C@H](N)C[C@@H]1O [TOB, Tobramycin]	–	–	1 (≈ 2.14 µM)	–	–	–	–	–	–	–	–	–
colistin	–	–	–	–	–	0.5	0.5	0.5	0.5	0.5	0.5	MIC ([7]; clinical CRAB isolate A. baumannii 038 (OXA-23), Table 3): 0.25 µg/mL; MIC ([8]; clinical CRAB isolate A. baumannii 045 (OXA-58), Table 3): 0.125 µg/mL; MIC ([9]; clinical CRAB isolate A. baumannii 046 (OXA-40), Table 3): 0.25 µg/mL; MIC ([10]; clinical CRAB isolate A. baumannii 047 (OXA-235), Table 3): 0.25 µg/mL; MIC (A. baumannii 070 (NDM-1) [11]; clinical CRAB isolate A. baumannii 070 (NDM-1), Table 3): 0.125 µg/mL; MIC ([12]; clinical CRAB isolate A. baumannii 054 (OXA-51-ISAba1), Table 3): 0.125 µg/mL
